Experimental data from article PMC13144346.
Results are given in words; binding and its absence hold for the method and conditions named. Binding seen in cells or lysates may run through a third protein. Some entries that bind do so weakly or less than the wild type.

Amino acid sequences for entries named in this document (tags omitted). A change or cut given only in a name is not applied to a line headed by its entry. Residues count along the entry.
UniProt Q7L804: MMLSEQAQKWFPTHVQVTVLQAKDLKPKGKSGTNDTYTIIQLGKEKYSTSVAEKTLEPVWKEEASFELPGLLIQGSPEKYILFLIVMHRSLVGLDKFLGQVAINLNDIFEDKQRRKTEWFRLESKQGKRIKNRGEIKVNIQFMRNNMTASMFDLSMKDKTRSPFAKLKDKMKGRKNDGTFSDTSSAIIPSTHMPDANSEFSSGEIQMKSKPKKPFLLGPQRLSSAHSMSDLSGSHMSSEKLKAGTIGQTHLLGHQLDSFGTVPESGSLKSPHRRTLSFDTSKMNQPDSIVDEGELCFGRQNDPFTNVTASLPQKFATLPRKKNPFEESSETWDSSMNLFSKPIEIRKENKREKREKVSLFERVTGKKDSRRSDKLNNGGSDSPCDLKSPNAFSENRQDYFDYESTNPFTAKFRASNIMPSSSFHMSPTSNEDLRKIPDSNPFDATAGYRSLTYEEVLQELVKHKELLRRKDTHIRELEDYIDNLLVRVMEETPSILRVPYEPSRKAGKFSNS
Flag-FIP2_(1-192): residues 1-192 of Q7L804
Flag-FIP2_(193-512): residues 193-512 of Q7L804
UniProt Q96P20: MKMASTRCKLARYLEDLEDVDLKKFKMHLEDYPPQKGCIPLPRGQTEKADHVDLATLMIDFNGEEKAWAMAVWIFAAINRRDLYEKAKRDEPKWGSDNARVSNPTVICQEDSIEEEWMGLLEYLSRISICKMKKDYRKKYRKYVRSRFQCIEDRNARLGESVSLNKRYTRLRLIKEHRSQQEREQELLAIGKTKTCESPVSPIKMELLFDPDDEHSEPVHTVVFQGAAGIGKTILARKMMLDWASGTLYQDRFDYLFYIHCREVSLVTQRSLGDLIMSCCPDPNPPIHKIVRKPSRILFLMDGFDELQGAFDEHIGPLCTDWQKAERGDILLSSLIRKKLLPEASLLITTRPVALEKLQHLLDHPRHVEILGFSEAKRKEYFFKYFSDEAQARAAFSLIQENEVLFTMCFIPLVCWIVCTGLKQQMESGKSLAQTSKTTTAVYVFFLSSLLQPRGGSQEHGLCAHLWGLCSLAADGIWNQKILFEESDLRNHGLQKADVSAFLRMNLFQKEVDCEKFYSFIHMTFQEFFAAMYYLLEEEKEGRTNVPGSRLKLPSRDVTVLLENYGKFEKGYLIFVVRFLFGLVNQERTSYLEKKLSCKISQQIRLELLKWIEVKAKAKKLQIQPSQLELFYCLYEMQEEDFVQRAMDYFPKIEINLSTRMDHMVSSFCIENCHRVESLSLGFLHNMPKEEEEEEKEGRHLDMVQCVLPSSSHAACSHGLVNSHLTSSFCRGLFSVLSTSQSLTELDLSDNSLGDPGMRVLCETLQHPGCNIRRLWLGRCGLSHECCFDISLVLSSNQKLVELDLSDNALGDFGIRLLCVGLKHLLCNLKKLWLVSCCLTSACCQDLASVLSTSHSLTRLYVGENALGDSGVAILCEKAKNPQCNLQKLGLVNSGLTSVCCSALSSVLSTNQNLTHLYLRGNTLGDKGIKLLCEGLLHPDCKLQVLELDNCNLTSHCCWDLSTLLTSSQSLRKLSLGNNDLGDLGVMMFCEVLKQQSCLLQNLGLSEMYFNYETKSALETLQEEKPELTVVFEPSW
Flag-NLRP3_(132-1036): residues 132-1036 of Q96P20
UniProt P62491: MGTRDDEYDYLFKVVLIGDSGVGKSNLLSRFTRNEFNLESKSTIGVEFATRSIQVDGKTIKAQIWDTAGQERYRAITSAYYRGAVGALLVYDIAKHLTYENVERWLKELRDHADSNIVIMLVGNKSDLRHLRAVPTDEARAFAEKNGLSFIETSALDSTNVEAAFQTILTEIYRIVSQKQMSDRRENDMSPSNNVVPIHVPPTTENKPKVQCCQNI
UniProt Q9ULZ3: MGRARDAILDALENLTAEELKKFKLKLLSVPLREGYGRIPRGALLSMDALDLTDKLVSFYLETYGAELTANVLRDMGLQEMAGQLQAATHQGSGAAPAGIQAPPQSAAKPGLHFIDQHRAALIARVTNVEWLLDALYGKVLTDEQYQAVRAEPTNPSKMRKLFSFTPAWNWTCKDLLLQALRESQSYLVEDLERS

Columns and labels:
Test in all cases: co-IP; HEK293T cells co-transfected for 48 h (24 h for Fig. 5C, E), with or without ECFP-Rab11; lysis in 150 mM NaCl, 50 mM Tris-HCl pH 8.0, 1 mM EDTA, 1% NP-40; Flag-tagged bait on anti-Flag (M2) affinity agarose, 4 °C, 3 h or overnight; four washes; immunoblot
[1] = biological target: Flag-FIP2 (full-length FIP2) (human) (UniProt Q7L804)
[2] = biological target: Flag-NLRP3 (full length human NLRP3) (human) (UniProt Q96P20)
[3] = biological target: Flag-NLRP3_(132-1036) (human) (UniProt Q96P20)
[4] = biological target: Flag-FIP2_(1-192) (human) (UniProt Q7L804)
[5] = biological target: Flag-FIP2_(193-512) (human) (UniProt Q7L804)

| binding [1] | binding [2] | Substance | further results |
| --- | --- | --- | --- |
| binds |  | ECFP-Rab11 (hsRab11a in pECFP-C1) (from UniProt P62491 1-216) |  |
|  | binds | EGFP-FIP2 (EGFP-Rab11FIP2) (from UniProt Q7L804 1-512) | binding [3]: no binding |
|  | no binding | EGFP-FIP2_(I481E) (from UniProt Q7L804 1-512) |  |
| binds |  | EGFP-NLRP3 (hsNLRP3 in pEGFP-C2) (from UniProt Q96P20 1-1036) | binding [4]: binds; binding [5]: no binding |
| no binding |  | HA-ASC (hsASC-HA in pCI) (from UniProt Q9ULZ3 1-195) |  |
